The results in this text go back to the supplement of paper PMC8047034.

The list shows a part of the results. Repeats are few or missing, and single values can be far off.

The subject of one assay is OVCAR4. The experiment in a line: log2 surviving fraction (library drug vs vehicle, or drug + carboplatin vs carboplatin alone; relative to plate median); ovarian cancer lines: OVCAR4 is platinum-sensitive and Ov4Carbo platinum-resistant; higher = more cell survival. The conditions noted are these: library drug concentration 10 µM, 7 days.
Another assay deals with Ov4Carbo. Described as above. The conditions noted are these: library drug concentration 10 µM, 7 days.

Turning to `O=C1C(O)=C([C@H]2CC[C@H](c3ccc(Cl)cc3)CC2)C(=O)c2ccccc21` [Atovaquone (Atavaquone)], the log2 surviving fraction with OVCAR4 (carboplatin co-treatment 0 µM) is 0.176; in the assay with OVCAR4 (carboplatin co-treatment 5 µM), -0.387; with Ov4Carbo (carboplatin co-treatment 0 µM) it was 0.968; in the assay with Ov4Carbo (carboplatin co-treatment 5 µM), 1.21.
As for `COc1ccc(Cl)cc1C(=O)NCCc1ccc(S(=O)(=O)NC(=O)NC2CCCCC2)cc1` [Glyburide (Diabeta)], the log2 surviving fraction in the assay on OVCAR4 (carboplatin co-treatment 0 µM) is -1.43; in the assay on OVCAR4 (carboplatin co-treatment 5 µM) it was -0.785; with Ov4Carbo (carboplatin co-treatment 0 µM) it was -2.22; in the assay on Ov4Carbo (carboplatin co-treatment 5 µM), -0.126.
With `O=C(O)c1cccnc1` [Niacin (Nicotinic acid)], the log2 surviving fraction in the assay on OVCAR4 (carboplatin co-treatment 0 µM) was 0.858; in the assay with OVCAR4 (carboplatin co-treatment 5 µM), 0.173; in the assay with Ov4Carbo (carboplatin co-treatment 0 µM) it was 0.0878; with Ov4Carbo (carboplatin co-treatment 5 µM) it was 0.516.
Take `CCC(=O)OCC(=O)[C@@]1(OC(=O)CC)[C@@H](C)C[C@H]2[C@@H]3CCC4=CC(=O)C=C[C@]4(C)[C@@]3(F)[C@@H](O)C[C@@]21C` [Betamethasone Dipropionate (Diprolene)]: the log2 surviving fraction is -1.05 with OVCAR4 (carboplatin co-treatment 0 µM), 0.24 in the assay on OVCAR4 (carboplatin co-treatment 5 µM), 1.25 with Ov4Carbo (carboplatin co-treatment 0 µM) and 0.501 in the assay with Ov4Carbo (carboplatin co-treatment 5 µM).
The matching figures for `Nc1nc(N)c2nc(-c3ccccc3)c(N)nc2n1` [triamterene]: -0.942, -0.332, -0.0677 and -0.749.
On to `CC[C@H]1OC(=O)C[C@@H](O)[C@H](C)[C@@H](O[C@@H]2O[C@H](C)[C@@H](O)[C@H](N(C)C)[C@H]2O)[C@@H](CCN2C[C@H](C)C[C@H](C)C2)C[C@@H](C)C(=O)/C=C/C(C)=C/[C@@H]1CO[C@@H]1O[C@H](C)[C@@H](O)[C@@H](OC)[C@H]1OC` [Tilmicosin], for which the log2 surviving fraction in the assay on OVCAR4 (carboplatin co-treatment 0 µM) was -0.433; with OVCAR4 (carboplatin co-treatment 5 µM) it was 0.856; with Ov4Carbo (carboplatin co-treatment 0 µM), 0.974; in the assay on Ov4Carbo (carboplatin co-treatment 5 µM), 0.517.
Turning to `O=[N+]([O-])c1ccc([As](=O)(O)O)cc1` [Nitarsone], the log2 surviving fraction in the assay on OVCAR4 (carboplatin co-treatment 0 µM) is 0.528; with OVCAR4 (carboplatin co-treatment 5 µM) it was 0.0166; in the assay on Ov4Carbo (carboplatin co-treatment 0 µM), -0.255; with Ov4Carbo (carboplatin co-treatment 5 µM), -2.77.
As to `CN(C)CCCN1c2ccccc2Sc2ccc(Cl)cc21` [Chlorpromazine (Sonazine)], the log2 surviving fraction with OVCAR4 (carboplatin co-treatment 0 µM) was -2.2; in the assay with OVCAR4 (carboplatin co-treatment 5 µM) it was -1.01; with Ov4Carbo (carboplatin co-treatment 0 µM), -2.64; in the assay on Ov4Carbo (carboplatin co-treatment 5 µM) it was -2.63.
